Results taken from PubChem BioAssay AID686970 (National Center for Advancing Translational Sciences (NCATS), 2013).
Screen size: about 360,000 compounds; about 6,000 (1.7%) were called active. Inconclusive means that the source gave no clear call. Such entries were picked first, then a sample of the others. Calls come from the whole dose curve; as a rule, active = well fitted cell-killing curve with a large enough effect; inconclusive = small, poorly fitted or top-dose-only effect, or effect the other way; inactive = flat fitted curve, though single readings scatter. No potency is given beside an inconclusive call; the fits are too rough.

Assay: qHTS for induction of synthetic lethality in tumor cells producing 2HG: qHTS for the HT-1080-NT fibrosarcoma cell line;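 note: NT is the 2HG producing partner of a matched IDH1 knockdown line; nearly all actives have a fitted effect of over 55% in size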
Conditions: HT-1080-NT fibrosarcoma viability, CellTiter-Glo ATP luminescence, 48 h; series mostly up to 46.1 µM
In short: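 Viability by CellTiter-Glo luminescence after 48 h compound exposure at 37C of HT-1080-NT cells (750/well, RPMI, 5% FBS). % activity scaled between DMSO wells and medium-only wells, then curve-fitted and categorized by curve class.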
Potency is the fitted concentration of half-maximal effect; tags give direction and shape of the fitted curve.

Row | Structure (SMILES) | Potency
1 | CC1=C(C(=O)Nc2ccccc2F)C(c2ccsc2)C2=C(CC(C)(C)CC2=O)N1 (configuration not stated) | inconclusive [cytotoxic, single point]
2 | O=C(/C=C\Nc1ccccc1Br)c1ccc2c(c1)OCO2 | inconclusive [cytotoxic, partial curve, poor fit]
3 | CCO[C@H]1OC(C(=O)NCc2nc3ccccc3[nH]2)=C[C@@H](c2ccc(Br)cc2)[C@@H]1CCCO | inconclusive [cytotoxic, single point]
4 | C=CCN(Cc1cc(OC)ccc1OC)C(=O)c1cc2ccc(OC)cc2[nH]1 | inconclusive [cytotoxic, single point]
5 | NC(c1csc(NC(=O)Nc2ccccc2)n1)C1CCCCC1 (configuration not stated) | inconclusive [cytotoxic, single point]
6 | CCC(=O)N1c2ccc(S(=O)(=O)N3CCN(c4ccccc4Cl)CC3)cc2CC1C (configuration not stated) | inconclusive [cytotoxic, single point]
7 | O=C(CSc1nc2ccc(NC(=O)c3ccccc3C(=O)O)cc2s1)Nc1c(Cl)cccc1Cl | inactive
8 | CC(C)c1ccccc1NC(=O)COC(=O)c1c2c(nc3ccccc13)CCN(Cc1ccccc1)C2 | inconclusive [cytotoxic, single point]
9 | CC(=O)c1cccc(NS(=O)(=O)c2ccc(NC(=O)N3CCCCC3)cc2)c1 | inconclusive [cytotoxic, full curve, poor fit]
10 | Cc1ccc2[nH]c(=O)c(CN(Cc3cccnc3)C(=O)c3ccncc3)cc2c1 | inconclusive [cytotoxic, single point]
11 | Cc1cc(-c2nc(C)c(-c3nnc(SCC(=O)Nc4cc(Cl)cc(Cl)c4)n3C)s2)no1 | inconclusive [rising, single point]
12 | Cc1cc(C)cc(C(=O)Nn2cnnc2)c1 | inactive
13 | Cn1c(CN2CCCCC2)nc2cc(NC(=O)c3ccc(Cl)cc3)ccc21 | inconclusive [cytotoxic, single point]
14 | Cc1ccc2nc(NC(=O)CS(=O)(=O)Cc3ccccc3)sc2c1 | inconclusive [cytotoxic, single point]
15 | COc1ccc(/C=N/Nc2nnc(C)n2N)cc1OC(C)=O | active: 23.1 µM
16 | c1cc2c(cc1-c1cnc3n1CCC3)OCCO2 | inconclusive [cytotoxic, single point]
17 | Cc1ccc(-n2c(C)cc(C3N=C(N)Nc4nc5ccccc5n43)c2C)c(C)c1 (configuration not stated) | inconclusive [cytotoxic, single point]
